# According to PubChem BioAssay AID485360 (National Center for Advancing Translational Sciences (NCATS), 2010):
# Hit rate of the full screen: of about 230,000 compounds, about 1,500 (0.65%) were called active. This list was built around the results that the source calls inconclusive (neither active nor inactive); the mix of calls is not that of the screen. Calls follow the shape of the dose curve; as a rule, active = well fitted inhibition curve with a large enough effect; inconclusive = small, poorly fitted or top-dose-only effect; inactive = no such curve, though single readings can be large or run the other way. Potencies beside an inconclusive call are fits to weak or partial responses and may not hold up.
# Target: Lethal(3)malignant brain tumor-like protein 1 (Homo sapiens) (UniProt Q9Y468)
# Chain of UniProt Q9Y468 (Q9Y468 whole entry, looked up): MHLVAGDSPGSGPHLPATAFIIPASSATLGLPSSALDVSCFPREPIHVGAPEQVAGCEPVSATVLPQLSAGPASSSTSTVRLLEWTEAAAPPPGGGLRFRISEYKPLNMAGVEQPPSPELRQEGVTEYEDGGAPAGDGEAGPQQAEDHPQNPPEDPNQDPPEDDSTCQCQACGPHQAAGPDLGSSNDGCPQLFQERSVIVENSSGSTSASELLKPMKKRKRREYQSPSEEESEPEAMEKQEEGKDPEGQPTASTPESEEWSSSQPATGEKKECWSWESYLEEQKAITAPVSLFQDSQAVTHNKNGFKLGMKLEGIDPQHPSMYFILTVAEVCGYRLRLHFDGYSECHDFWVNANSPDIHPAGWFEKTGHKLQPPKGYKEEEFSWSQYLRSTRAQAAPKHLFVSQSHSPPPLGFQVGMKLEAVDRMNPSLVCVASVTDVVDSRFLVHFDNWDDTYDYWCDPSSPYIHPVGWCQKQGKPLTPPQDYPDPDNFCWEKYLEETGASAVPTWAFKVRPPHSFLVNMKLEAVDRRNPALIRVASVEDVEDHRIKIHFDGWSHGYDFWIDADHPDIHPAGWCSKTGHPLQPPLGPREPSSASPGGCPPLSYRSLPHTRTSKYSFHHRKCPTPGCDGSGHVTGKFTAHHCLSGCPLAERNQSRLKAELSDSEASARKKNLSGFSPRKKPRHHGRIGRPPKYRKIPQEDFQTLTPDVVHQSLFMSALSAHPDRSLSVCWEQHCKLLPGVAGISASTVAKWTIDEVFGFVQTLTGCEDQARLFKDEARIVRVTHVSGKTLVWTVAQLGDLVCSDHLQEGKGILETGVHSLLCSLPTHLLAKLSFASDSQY
# Test: qHTS Assay for the Inhibitors of L3MBTL1; also: nearly all actives have a fitted effect of over 60% in size
# Settings: AlphaScreen L3MBTL1–H3K9me1 peptide binding; activity, negative = inhibition: at 57.1 µM (top of the series)
# How it was run: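 Displacement of a biotinylated histone H3(1-15) peptide monomethylated at Lys9 (75 nM) from L3MBTL1 (50 nM) was measured by AlphaScreen after a 30 min room-temperature compound incubation; cefsulodin titration served as intraplate control.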
# % is scaled to controls: 0 for no effect and ±100 for the full control effect; potency is read from the fitted curve at half-maximal effect; tags tell the direction and shape of the fitted curve.
SMILES,Potency,"activity, negative = inhibition"
COC(=O)c1ccc(C2Nc3cccc4cccc(c34)N2)cc1,"inconclusive: 39.8 µM [inhibitor, partial curve]",–
O=C1CCCC/C1=C/Nc1ccc2c(c1)OCO2,inactive,–
O=C(CC1Sc2ccccc2NC1=O)OCc1cc(=O)oc2cc(O)ccc12 (centres undefined),"inconclusive: 28.2 µM [inhibitor, partial curve]",–
O=C(CCN1CCCC1)Nc1ccc(Br)cc1,inactive,–
CCOc1ccccc1N1CCN(C(=O)Nc2cccc(Cl)c2)CC1,"inconclusive: 2 µM [inhibitor, single point]",–
CN1CCCN(C2C3CC4CC(C3)CC2C4)CC1 (centres undefined),inactive,–
Cc1nc(SCC(=O)Nc2nc3ccccc3s2)c(C#N)c(C)c1C,inactive,–
COc1ccc(CC2=CC(=O)c3ccccc3C2=O)cc1,"inconclusive: 28.2 µM [inhibitor, single point]",–
CCC(CC)CN1CCN=C1Nc1ccccc1,inactive,–
Cc1cc(C)c2nc(N3C(=O)C(O)=C(C(=O)c4ccco4)C3c3cccc(O)c3)sc2c1 (centres undefined),active: 31.6 µM,–
c1ccc(-c2nn3c(Cn4cnc5ccccc54)nnc3s2)cc1,"inconclusive: 35.5 µM [inhibitor, single point]",–
COc1ccc(C2C(C(=O)N3CCN(c4ccccn4)CC3)CCC(=O)N2c2ccc(OC)cc2)cc1 (centres undefined),"inconclusive: 0.316 µM [inhibitor, full curve]",–
Cc1ccc2c(CC(=O)OCc3csc(C)n3)coc2c1,inactive,–
Cc1ccc(OCCC(=O)OCC(=O)Nc2ccc(Cl)cn2)cc1,"inconclusive: 28.2 µM [inhibitor, partial curve]",–
COc1cc(C2C3=C(CC(C)(C)CC3=O)N(C)C3=C2C(=O)CC(C)(C)C3)ccc1O,inactive,–
COC(=O)CCN(C(=O)c1ccc(C)c([N+](=O)[O-])c1)c1ccccn1,"inconclusive: 0.1 µM [inhibitor, full curve, poor fit]",–
O=[N+]([O-])c1ccc(C2=NN(c3ccccc3)C(c3ccco3)C2)cc1 (centres undefined),"inconclusive: 35.5 µM [inhibitor, single point]",–
O=C(CNc1ccc(F)cc1Cl)Nc1cccc(S(=O)(=O)N2CCCCC2)c1,inactive,–
O=C(/C=C/c1ccc(O)c(O)c1)OC1C(O)CC(OC(=O)/C=C/c2ccc(O)c(O)c2)(C(=O)O)CC1O (centres undefined),active: 1 µM,–
C=CCn1c(COc2cccc(C)c2)nnc1SCC(=O)NC(=O)NCc1ccco1,"inconclusive: 31.6 µM [inhibitor, single point]",–
COc1ccc(-c2cn3c(C)c(C(=O)N4CCc5ccccc5C4)sc3n2)cc1,"inconclusive: 39.8 µM [inhibitor, single point]",–
N#C/C(C(=O)c1ccccc1)=C1/SC=C(N)N1c1ccccc1,"inconclusive: 17.8 µM [inhibitor, partial curve]",–
O=C1/C(=C/c2ccccn2)SC(=S)N1Cc1ccccc1,inactive,–

SMILES,Potency,"activity, negative = inhibition"
COCC(=O)N1CCCC(C(=O)c2ccc3c4c(cccc24)CC3)C1 (centres undefined),"inconclusive: 31.6 µM [inhibitor, single point]",–
CC(C)(C)OC(=O)CN1C(=O)S/C(=C\c2ccc(-c3cccc(C(=O)O)c3)o2)C1=O,"inconclusive: 0.794 µM [inhibitor, full curve, poor fit]",–
Cc1ccccc1OCc1nc(C#N)c(N2CCCC2)o1,"inconclusive: 2.51 µM [inhibitor, partial curve]",–
CCOc1ccc(C(Nc2cccnc2)c2cc(Cl)c3cccnc3c2O)cc1 (centres undefined),"inconclusive: 7.08 µM [inhibitor, full curve]",–
Cc1cc(/C=N/NC(=O)CC#N)c(C)n1-c1ccc([N+](=O)[O-])cc1,"inconclusive: 39.8 µM [inhibitor, single point]",–
CCN1C(=NCc2cc(OC)c(OC)c(OC)c2)N[C@@H](c2ccccc2)[C@H](C(=O)OC)[C@H]1C,inactive,–
O=C(Oc1cccc2cccnc12)c1cccc([N+](=O)[O-])c1,"inconclusive: 35.5 µM [inhibitor, single point]",–
Cc1cc(NC(=O)COC(=O)c2cccc(O)c2)no1,"inconclusive: 0.1 µM [inhibitor, full curve, poor fit]",–
CCOC(=O)CC1COc2ccccc2N1C(=O)c1ccc(F)cc1 (centres undefined),"inconclusive: 3.16 µM [inhibitor, partial curve]",–
Fc1cccc(Cl)c1CNc1ccc(N2CCCC2)cc1,"inconclusive: 10 µM [inhibitor, partial curve]",–
CCOc1ccc(-n2ccnc(SCC(=O)NCc3cccc(OC)c3)c2=O)cc1,inactive,–
O=C(Nc1cccnc1)c1ccc([N+](=O)[O-])s1,"inconclusive: 28.2 µM [inhibitor, partial curve]",–
O=C(CCC(=O)Nc1ccc(F)cc1)N/N=C/c1c[nH]c2ccccc12,"inconclusive: 0.891 µM [inhibitor, full curve, poor fit]",–
c1ccc(-c2cn(C[C@H]3CC[C@@H]([C@@H]4CC[C@H](Cn5cc(-c6ccccn6)nn5)O4)O3)nn2)nc1,active: 2.51 µM,–
O=C(Nc1ccc([N+](=O)[O-])cc1)C1(c2ccccc2)CCOCC1,"inconclusive: 7.08 µM [inhibitor, single point]",–
CN(CCCCCC(=O)/C=N/O)Cc1ccccc1,inactive,–
COC(=O)[C@@]1(Cc2ccc(OC)cc2)[C@H]2c3cc(C(=O)N(C)C)n(CCc4ccc(OC)c(Br)c4)c3C[C@H]2CN1C(=O)c1ccccc1,"inconclusive: 0.708 µM [inhibitor, partial curve, poor fit]",–
S=c1[nH]nc(-c2ccccn2)n1/N=C/c1ccccc1,"inconclusive: 28.2 µM [inhibitor, single point]",–
Cc1cccc(C(=O)NC(=S)N2CCN(C)CC2)c1,inactive,–
CCCOP(=O)(OCCC)C(Nc1ccc(C(C)C)cc1)c1ccc([N+](=O)[O-])cc1 (centres undefined),inactive,–
CCOc1ccc(NC(=S)NNc2ccnc3cc(Cl)ccc23)cc1,inactive,–
CN1CCN(CCCN(Cc2ccco2)C(=S)Nc2ccc(Cl)cc2)CC1,"inconclusive: 39.8 µM [inhibitor, single point]",–
CN(C)CCCNCCCNC(=O)c1ccncc1,"inconclusive: 35.5 µM [inhibitor, single point]",–

SMILES,Potency,"activity, negative = inhibition"
Cn1cccc1/C=N/n1c(-c2ccc(C(C)(C)C)cc2)n[nH]c1=S,"inconclusive: 28.2 µM [inhibitor, partial curve]",–
CCc1cccc(Nc2c([N+](=O)[O-])cc(C(=O)N3CC(=O)Nc4ccccc43)cc2[N+](=O)[O-])c1,"inconclusive: 39.8 µM [inhibitor, single point]",–
C/C=C/COC(=O)c1[nH]c2c(c1C)C(=O)CC(c1ccco1)C2 (centres undefined),"inconclusive: 31.6 µM [inhibitor, single point]",–
CCCCOc1ccc(N2C(=O)CC(N(CCc3ccccc3)C(=O)/C=C/C(=O)O)C2=O)cc1 (centres undefined),"inconclusive: 31.6 µM [inhibitor, single point]",–
COc1ccc(N2CCN(C(c3ccc4ncccc4c3)c3nnnn3C(C)(C)C)CC2)cc1 (centres undefined),"inconclusive: 15.8 µM [inhibitor, partial curve, poor fit]",–
CCn1c(/N=C/c2ccccc2O)nc2ccccc21,"inconclusive: 7.08 µM [inhibitor, single point]",–
O=c1cc(CN2CCCCCC2)nc2sccn12,"inconclusive: 4.47 µM [inhibitor, single point]",–
O=C1c2nc3cc(-c4ccco4)[nH]n3c(=O)c2CN1Cc1ccccc1,"inconclusive: 35.5 µM [inhibitor, single point]",–
COc1cc(/C=N/Nc2ccc(Cl)c(C(=O)O)c2)ccc1OC(=O)c1ccco1,inactive,–
Cc1cc(SCC(=O)N/N=C/c2ccc(O)c(O)c2)nc2ccccc12,–,inconclusive: -44.3% [inhibitor]
CCCNC(=O)NC(=O)COC(=O)c1ccc(S(=O)(=O)N(C)c2ccccc2OC)cc1,"inconclusive: 39.8 µM [inhibitor, partial curve]",–
O=C(C[N+]1(CC#Cc2ccccc2)CCCCC1)c1ccccc1,"inconclusive: 0.141 µM [inhibitor, full curve, poor fit]",–
O=C(Nc1nccs1)c1ccccn1,"inconclusive: 39.8 µM [inhibitor, single point]",–
Cc1cc(C)cc(NC(=O)CSc2nc3c(oc4ccccc43)c(=O)n2-c2ccccc2)c1,"inconclusive: 0.708 µM [inhibitor, single point]",–
COc1ccccc1NC(=O)C12CCC(C)(C(=O)C1)C2(C)C (centres undefined),inactive,–
COc1ccccc1NS(=O)(=O)c1ccc(NC(=O)c2ccncc2)cc1,"inconclusive: 0.562 µM [inhibitor, full curve, poor fit]",–
CNC(=O)CSc1nnc(CCc2ccccc2)n1-c1ccccc1,"inconclusive: 6.31 µM [inhibitor, single point]",–
C=CSc1sc(Cl)c(N(CC)CC)c1[N+](=O)[O-],"inconclusive: 22.4 µM [inhibitor, single point]",–
O=C(O)CCCC(=O)Nc1ccc(N2CCCC2)cc1,"inconclusive: 25.1 µM [inhibitor, single point]",–
O=C(OCC(=O)N1CCN(c2ccccc2)CC1)c1ccc([N+](=O)[O-])s1,"inconclusive: 17.8 µM [inhibitor, single point]",–
CN(C=[N+](C)C)c1cccc2c1C(=O)c1ccccc1C2=O,"inconclusive: 35.5 µM [inhibitor, single point]",–
CCOc1ccc(C2Nc3cccc4cccc(c34)N2)cc1OC,inactive,–
O=C1CN(C(=O)c2cc3ccccc3o2)c2ccccc2N1,"inconclusive: 6.31 µM [inhibitor, single point]",–
